Several values for one entry are separate records, joined by “and”; a condition that tells them apart may be missing. Identical values can stand only once. Out of some 350,000 compounds screened, about 260 (0.074%) were called active. This list was built around the results that the source calls inconclusive (neither active nor inactive); the mix of calls is not that of the screen. Calls come from the whole dose curve; as a rule, active = well fitted inhibition curve with a large enough effect; inconclusive = small, poorly fitted or top-dose-only effect; inactive = no such curve, though single readings can be large or run the other way. Potencies beside an inconclusive call are fits to weak or partial responses and may not hold up.
Target: Ferritin light chain (Equus caballus) (UniProt P02791)
Assay: qHTS Assay for Identification of Novel General Anesthetics; note: nearly all actives have a fitted effect of over 20% in size
Settings: apoferritin/1-aminoanthracene competitive binding, fluorescence; activity change, negative = displacement: at 77.5 µM (top of the series)
Procedure, shortened: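 Horse-spleen apoferritin (10 uM) was mixed with 50% saturated 1-aminoanthracene in PBS, exposed to compounds for 10 min at room temperature, and read for fluorescence (ex 380 nm, em 535 nm). Competitive displacement was fitted with a four-parameter Hill equation.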
% is set by controls: 0 for no effect and ±100 for the full control effect; potency is the fitted concentration of half-maximal effect; tags give direction and shape of the fitted curve.

Chain of UniProt P02791 (P02791 whole entry, looked up): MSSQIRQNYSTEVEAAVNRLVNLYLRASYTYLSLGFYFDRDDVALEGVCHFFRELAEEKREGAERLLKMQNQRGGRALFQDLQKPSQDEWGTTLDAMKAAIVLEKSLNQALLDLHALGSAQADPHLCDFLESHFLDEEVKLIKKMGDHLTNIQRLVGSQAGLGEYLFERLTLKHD

Activity change, negative = displacement, inactive:
COc1ccc(C2C=C3CNS(=O)(=O)C3CC2OC(=O)c2ccc(C(F)(F)F)cc2)cc1 (stereo unspecified) -19.9%, COc1ccc(OC)c(NC(=O)CC2SC(=Nc3ccccc3)N(CCc3ccccn3)C2=O)c1 (stereo unspecified) -5.98%, COCCCNC(=S)N1CCN(S(=O)(=O)c2ccc(OC)cc2)CC1 -3.16%, Cc1ccsc1CNCC(O)c1ccccc1 (stereo unspecified) -4.69%, CCOC(=O)CN(C)Cc1cn[nH]c1-c1ccc2cc(OC)ccc2c1 2.45%, CCc1ccc(OCc2ccccc2C(=O)Nc2ccc3nc(C)cc(N)c3c2)cc1 -20.6%, COc1cc(/C=N/N2C(=O)CSC2=S)cc(Br)c1O -16.3%, COC(=O)c1ccccc1NC(=O)CSc1nc(C)cc(C)n1 -13.5%, CCN(CC)c1ccc(/C=C(/C#N)c2nc3ccc(C)cc3[nH]2)c(OC(C)C)c1 -15.8%, CC(=C/c1ccccc1)/C=N/NC(=O)c1ccc2nc[nH]c2c1 2.61%, Cc1nc2cc(-c3cccs3)nn2c(NCC(C)(C)CN(C)C)c1C -1.98%, Cc1nn(C2CCS(=O)(=O)C2)c(Cl)c1/C=C/C(=O)OCC(=O)c1cc(C)n(-c2ccc(F)cc2)c1C (stereo unspecified) 4.91%, O=C(O)c1cccc(COc2ccc(CO)cc2Cl)c1 -5.14%, CCOC(=O)c1cnc2c(C)c(Cl)ccc2c1NCCCN1CCOCC1 -7.33%, CCc1ccc(C2C(C#N)=C(N)SC(N)=C2C#N)s1 -22.2%

Potency, inconclusive:
CC(=O)c1cccc(NC(=S)NCCc2ccc(Cl)cc2)c1 35.5 µM [inhibitor, partial curve], Cc1cc(C(=O)CCl)c(C)n1CCc1ccccc1 28.2 µM [inhibitor, partial curve], CCCCCCC(=O)N(O)C1CC(=O)N(c2ccc(C)cc2)C1=O (stereo unspecified) 20 µM [inhibitor, partial curve, poor fit], C/C(=N\NC(=O)COc1ccc(C(C)(C)C)cc1)c1ccccc1 22.4 µM [inhibitor, partial curve], c1coc(-c2nnc3sc(C4CCCCC4)nn23)c1 28.2 µM [inhibitor, partial curve], CC(C)c1ccc(NC(=O)[C@H](NC(=O)[C@@H]2Cc3ccccc3CN2)c2ccccc2)cc1 6.31 µM [inhibitor, partial curve], O=C(Cn1cc[n+](CC(=O)c2ccc(Cl)cc2Cl)c1)c1ccc(Cl)cc1Cl 56.2 µM [inhibitor, single point], CCC(C)NC(=O)c1cn(CC)c2ccc(S(=O)(=O)N3CCc4ccccc4C3)cc2c1=O (stereo unspecified) 20 µM [inhibitor, partial curve], CC(C)C(=O)Nc1ncc(Cc2cccc(Cl)c2)s1 35.5 µM [inhibitor, single point], Cc1cccc(OCC(=O)O/N=C(\N)c2ccccn2)c1C 28.2 µM [inhibitor, partial curve], COc1ccc(NS(=O)(=O)c2ccc(C)c(NC(=O)NC3CCCCC3)c2)cc1 20 µM [inhibitor, partial curve], C/C(=N\NC(=O)CSCc1ccccc1Cl)c1cc(O)ccc1O 15.8 µM [inhibitor, partial curve], O=S(=O)(/N=C(/Nc1ccc(Cl)cc1Cl)c1ccccc1)c1cccs1 31.6 µM [inhibitor, partial curve], CCCCc1ccc(NC(=O)CSCc2cc(=O)[nH][nH]2)cc1 31.6 µM [inhibitor, partial curve], Cc1ccccc1C(=O)Nc1ccnn1C1CCN(CCCc2ccccc2)CC1 25.1 µM [inhibitor, partial curve], CCn1c(=O)c2sccc2n2c(CCC(=O)Nc3ccc(C(C)C)cc3)nnc12 25.1 µM [inhibitor, partial curve], COC(=O)c1ccccc1NC(=O)Oc1ccc(C(C)C)cc1 28.2 µM [inhibitor, partial curve], CC1(COc2ccc(CC3SC(=O)NC3=O)cc2)CCCCC1 (stereo unspecified) 14.1 µM [inhibitor, partial curve] and 35.5 µM [inhibitor, single point], O=C(O)c1ccccc1C(=O)Nc1ccc(Oc2cccc(C(F)(F)F)c2)nc1 31.6 µM [inhibitor, single point], Cc1c(Cl)c([N+](=O)[O-])nn1CC(=O)NC(C)C1CC2CCC1C2 (stereo unspecified) 35.5 µM [inhibitor, partial curve], COc1ccc(-c2cc(=O)c3ccccc3s2)cc1 31.6 µM [inhibitor, single point], CCCCC(=O)OCc1cn(-c2ccc(Cl)cc2)nn1 25.1 µM [inhibitor, partial curve], CCCC(C)C(=O)Nc1ncc(S(=O)(=O)c2ccc([N+](=O)[O-])cc2)s1 (stereo unspecified) 20 µM [inhibitor, partial curve], CCCc1cc(C(=O)NCc2cccs2)no1 35.5 µM [inhibitor, partial curve], COc1ccccc1/C=C\C(=O)NCC(=O)N/N=C(/C)c1cccc([N+](=O)[O-])c1 44.7 µM [inhibitor, single point], CCOC(=O)C1CCCN(C(=O)c2ccc3nc(-c4cccc(OC)c4)oc3c2)C1 (stereo unspecified) 31.6 µM [inhibitor, partial curve], COc1cc(S(=O)(=O)NC2CCCCC2)ccc1Cl 50.1 µM [inhibitor, single point], CC(C)(C)C1CCc2onc(C(=O)NC3CCCC3)c2C1 (stereo unspecified) 35.5 µM [inhibitor, partial curve], Cc1ccc(-c2ccc(=O)n(CC(=O)NCCN3CCCCC3C)n2)cc1 (stereo unspecified) 31.6 µM [inhibitor, single point], CCC(NC(=O)c1cc(COc2ccc(OC)cc2Cl)on1)c1ccncc1 (stereo unspecified) 25.1 µM [inhibitor, partial curve], O=c1c2ccccc2c(-c2ccccc2)nn1-c1cc(Cl)ccc1[N+](=O)[O-] 6.31 µM [inhibitor, partial curve], CC(=O)c1cccc(NC(=O)Cn2cc(C(=O)c3cccc(Cl)c3)c(=O)c3ccc(C)nc32)c1 2.82 µM [inhibitor, full curve, poor fit], CCCOC(=O)c1[nH]c2c(c1C)C(=O)CC(c1cc(OC)c(OC)c(OC)c1)C2 (stereo unspecified) 28.2 µM [inhibitor, partial curve], O=S(=O)(NCc1ccccc1)c1ccccc1Br 28.2 µM [inhibitor, partial curve], C/C(=N\NC(=O)COc1ccccc1-c1ccccc1)c1ccccn1 31.6 µM [inhibitor, partial curve], Brc1ccc(CN2CCSCC2)cc1 25.1 µM [inhibitor, partial curve], CCN(C(=O)Cn1c(=O)n(Cc2ccc3c(c2)OCO3)c(=O)c2ccc(C(=O)NC3CCCCC3)cc21)c1cccc(C)c1 12.6 µM [inhibitor, partial curve], Cc1cc(C)cc(NC(=O)N2CCN(C(=O)c3nsc4ccccc34)CC2)c1 28.2 µM [inhibitor, partial curve], CCOC(=O)CCCCC(=O)c1[nH]c(=O)[nH]c1CSc1nnc2c3cc(Br)ccc3n(C)c2n1 35.5 µM [inhibitor, partial curve], CCOC(=O)CSC1=C(C#N)C(c2ccccc2C)C2=C(CCCC2=O)N1 (stereo unspecified) 20 µM [inhibitor, partial curve], O=C(NCc1ccccc1)C1=C[C@H](c2csc3ccccc23)C[C@H](OCCCCO)O1 22.4 µM [inhibitor, partial curve], COc1ccc2nc(C)cc(Nc3ccc(N4CCOCC4)cc3)c2c1 15.8 µM [inhibitor, partial curve], O=C(Cn1cnc2c(nc3n2CCCCC3)c1=O)Nc1cccc(C(F)(F)F)c1 12.6 µM [inhibitor, partial curve], CCCCOc1cccc(-c2cc(C(=O)NNC(=S)NCC)c3ccccc3n2)c1 56.2 µM [inhibitor, single point], O=c1sc2ccccc2n1CCOc1ccccc1 31.6 µM [inhibitor, single point], O=S1(=O)N[C@H](c2ccccc2)C[C@H](c2ccc(C(F)(F)F)cc2)O1 50.1 µM [inhibitor, single point], CC1CCCC(C)N1C(=O)Cn1c(SCC(=O)NCc2ccc3c(c2)OCO3)nc2ccccc21 (stereo unspecified) 31.6 µM [inhibitor, partial curve], O=C(CCC(=O)Nc1ccc(F)cc1)N/N=C/c1cccc(Br)c1 50.1 µM [inhibitor, single point], CCN(CC)CC(=O)Nc1nc(-c2ccc(Cl)cc2)cs1 35.5 µM [inhibitor, partial curve], CCCOC(=O)c1ccc(NC(=O)c2ccccc2[N+](=O)[O-])cc1 25.1 µM [inhibitor, partial curve]

Potency, active:
O=S(=O)(Nc1ccc2c(c1)CCC2)c1cccs1 11.2 µM

From PubChem BioAssay AID485281 (National Center for Advancing Translational Sciences (NCATS), 2010)
